Biological target: T1, purified recombinant NF-κB p65 (UniProt Q04206)
T1 construct: also called purified NF-κB p65
Test: GST pull-down of purified recombinant p65, immunoblot anti-p65

T1 sequence (Q04206 whole entry): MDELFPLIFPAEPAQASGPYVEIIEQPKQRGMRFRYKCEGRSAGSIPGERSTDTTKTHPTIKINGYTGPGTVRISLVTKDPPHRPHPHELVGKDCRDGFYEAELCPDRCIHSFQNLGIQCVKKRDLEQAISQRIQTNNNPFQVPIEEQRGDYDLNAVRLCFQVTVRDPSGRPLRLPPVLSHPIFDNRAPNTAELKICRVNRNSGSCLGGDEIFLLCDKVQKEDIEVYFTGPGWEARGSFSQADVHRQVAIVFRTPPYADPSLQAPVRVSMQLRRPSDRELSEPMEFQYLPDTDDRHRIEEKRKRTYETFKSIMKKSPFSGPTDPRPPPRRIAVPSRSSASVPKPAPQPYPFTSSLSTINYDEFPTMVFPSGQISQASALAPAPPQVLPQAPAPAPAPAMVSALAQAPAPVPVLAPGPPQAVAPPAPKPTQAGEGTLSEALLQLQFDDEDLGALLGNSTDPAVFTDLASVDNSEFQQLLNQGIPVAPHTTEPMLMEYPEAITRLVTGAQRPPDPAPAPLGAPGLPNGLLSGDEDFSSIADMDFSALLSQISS

binding result: no binding
B1: GST (other)
chain: not shown

Reference: patent US20110015138A1 (GENUS ONCOLOGY, published 2011)
